{
  "source": "paper PMC4336329",
  "about": "(PLoS ONE, 2015)",
  "note": "The campaign covered roughly 310,000 compounds. About 2,200 (0.71%) showed an effect of 50% or more. The effect is printed as a negative number. The list shows a part of the results.",
  "data": [
    {"biological_target": "human ether-à-go-go-related gene (hERG) potassium channel (human, UniProt Q12809)", "sequence (Q12809 whole entry, looked up)": "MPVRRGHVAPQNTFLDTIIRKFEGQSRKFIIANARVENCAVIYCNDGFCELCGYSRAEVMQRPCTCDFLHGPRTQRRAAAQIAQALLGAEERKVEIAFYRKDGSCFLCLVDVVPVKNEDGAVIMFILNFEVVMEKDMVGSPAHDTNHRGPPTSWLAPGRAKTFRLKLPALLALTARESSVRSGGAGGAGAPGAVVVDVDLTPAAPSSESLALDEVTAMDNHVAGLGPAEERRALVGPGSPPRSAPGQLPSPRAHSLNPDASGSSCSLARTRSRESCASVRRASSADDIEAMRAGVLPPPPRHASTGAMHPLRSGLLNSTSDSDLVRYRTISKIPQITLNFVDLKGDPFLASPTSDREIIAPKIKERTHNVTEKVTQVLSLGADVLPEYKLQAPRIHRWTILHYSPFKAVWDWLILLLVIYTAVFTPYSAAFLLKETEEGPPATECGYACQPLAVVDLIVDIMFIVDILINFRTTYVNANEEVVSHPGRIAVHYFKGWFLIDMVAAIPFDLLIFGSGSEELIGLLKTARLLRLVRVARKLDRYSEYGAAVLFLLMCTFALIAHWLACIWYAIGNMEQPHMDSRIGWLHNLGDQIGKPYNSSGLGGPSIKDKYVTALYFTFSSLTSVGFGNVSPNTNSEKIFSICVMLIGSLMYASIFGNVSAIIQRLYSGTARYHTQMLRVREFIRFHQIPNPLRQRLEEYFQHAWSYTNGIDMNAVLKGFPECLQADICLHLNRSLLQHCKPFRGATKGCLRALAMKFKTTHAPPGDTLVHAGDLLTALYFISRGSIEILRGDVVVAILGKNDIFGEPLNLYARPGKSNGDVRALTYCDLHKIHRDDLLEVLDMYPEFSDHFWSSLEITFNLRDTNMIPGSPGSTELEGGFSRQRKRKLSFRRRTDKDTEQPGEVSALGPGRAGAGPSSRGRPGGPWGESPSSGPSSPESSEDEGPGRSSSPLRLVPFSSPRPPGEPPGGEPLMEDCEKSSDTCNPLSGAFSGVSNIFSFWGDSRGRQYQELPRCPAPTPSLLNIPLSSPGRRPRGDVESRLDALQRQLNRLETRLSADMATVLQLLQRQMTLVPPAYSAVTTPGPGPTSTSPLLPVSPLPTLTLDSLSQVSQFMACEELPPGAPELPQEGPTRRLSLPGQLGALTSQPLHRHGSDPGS", "assay": "primary screen, population patch clamp on CHO cells stably expressing hERG", "units": {"hERG current change (%, negative = inhibition) at 1uM": "%"}, "values": [
      {"smiles": "S=P(N1CC1)(N1CC1)N1CC1", "hERG current change (%, negative = inhibition) at 1uM": 14.5},
      {"smiles": "O=C(NCc1ccc(-n2cccc2)cc1)c1cccc(F)c1", "hERG current change (%, negative = inhibition) at 1uM": 14.9},
      {"smiles": "O=C(CSc1nc2scc(-c3ccccc3)c2c(=O)[nH]1)NC1CCCCC1", "hERG current change (%, negative = inhibition) at 1uM": 15.2},
      {"smiles": "O=C1OCC/C1=C\\c1ccc2c(c1)OCO2", "hERG current change (%, negative = inhibition) at 1uM": 19},
      {"smiles": "O=C(NNc1nc2c(F)cc(F)cc2s1)C1=COCCO1", "hERG current change (%, negative = inhibition) at 1uM": 16.1},
      {"smiles": "CCC(C)NC(=O)c1cc(S(=O)(=O)N2CCCCC2)c[nH]1", "note": "(centres unmarked)", "hERG current change (%, negative = inhibition) at 1uM": 24.2},
      {"smiles": "Cc1ccc2[nH]c(=O)c(CN(CC3COCCO3)C(=O)Nc3ccccc3F)cc2c1", "note": "(centres unmarked)", "hERG current change (%, negative = inhibition) at 1uM": -1.51},
      {"smiles": "O=C1c2ccc3c4c(ccc(c24)C(=O)N1c1ccc(O)cc1)C(=O)N(c1ccc(O)cc1)C3=O", "hERG current change (%, negative = inhibition) at 1uM": 26.1},
      {"smiles": "C/C=C(\\C)C(=O)NCCN1C2=NC[C@@H](Cc3ccccc3)N2C[C@@H]1Cc1ccc(OC)cc1", "hERG current change (%, negative = inhibition) at 1uM": 6.4},
      {"smiles": "CC(=O)Nc1ccc(NS(=O)(=O)c2cccc3nonc23)cc1", "hERG current change (%, negative = inhibition) at 1uM": 20.8},
      {"smiles": "CCOC(=O)[C@H]1[C@H]2COc3ccc(Cl)cc3[C@@H]2N2C(=O)CN(Cc3ccc(OC)cc3)C(=O)[C@@]12C", "hERG current change (%, negative = inhibition) at 1uM": 10.5},
      {"smiles": "CCn1c(=O)c(=O)[nH]c2cc(C(=O)NC(C)c3ccc(S(N)(=O)=O)cc3)ccc21", "note": "(centres unmarked)", "hERG current change (%, negative = inhibition) at 1uM": 8},
      {"smiles": "O=C(c1cccc(C(F)(F)F)c1)N1CCc2c([nH]c3ccccc23)C1C(F)(F)F", "note": "(centres unmarked)", "hERG current change (%, negative = inhibition) at 1uM": 2.07},
      {"smiles": "Cc1ccc(C(=O)NC(=S)Nc2cccnc2Cl)cc1", "hERG current change (%, negative = inhibition) at 1uM": 1.74},
      {"smiles": "CC1CCCN(c2nc3ccccc3nc2C(C#N)S(=O)(=O)c2cccs2)C1", "note": "(centres unmarked)", "hERG current change (%, negative = inhibition) at 1uM": 3.34},
      {"smiles": "COC(=O)c1[nH]c(C)c(/C(O)=C2\\C(=O)C(=O)N(CCN(C)C)C2c2ccco2)c1C", "note": "(centres unmarked)", "hERG current change (%, negative = inhibition) at 1uM": 6.05},
      {"smiles": "COc1ccc2nc(SCC(=O)/C(C#N)=C(\\C)N)[nH]c2c1", "hERG current change (%, negative = inhibition) at 1uM": -10.7},
      {"smiles": "Cc1ccc(OCC(=O)NNC(=O)C2CCC2)cc1C", "hERG current change (%, negative = inhibition) at 1uM": 7.97},
      {"smiles": "CC1=NNC(=O)C1CC(=O)N/N=C/c1sccc1C", "note": "(centres unmarked)", "hERG current change (%, negative = inhibition) at 1uM": 5.52},
      {"smiles": "Cc1ccc(C)c(NS(=O)(=O)c2ccccc2C)c1", "hERG current change (%, negative = inhibition) at 1uM": 4.37},
      {"smiles": "O=C(NC(Cc1ccccc1)C(=O)O)C1CCN(S(=O)(=O)c2cccc(C(F)(F)F)c2)CC1", "note": "(centres unmarked)", "hERG current change (%, negative = inhibition) at 1uM": 11.4},
      {"smiles": "CCOC(=O)c1ccc(COC(=O)c2cc(=O)[nH]c3ccccc23)o1", "hERG current change (%, negative = inhibition) at 1uM": -0.15},
      {"smiles": "Cc1ccc(S(=O)(=O)Nc2c(C)n(C)n(-c3ccccc3)c2=O)cc1C(=O)NCc1ccccc1", "hERG current change (%, negative = inhibition) at 1uM": 5.34},
      {"smiles": "COc1ccc(C(=O)N2CCOC23CCN(c2ncccn2)CC3)cc1", "hERG current change (%, negative = inhibition) at 1uM": 1.21},
      {"smiles": "Cc1nnc(SCC(=O)Nc2nccs2)[nH]c1=O", "hERG current change (%, negative = inhibition) at 1uM": 8.22},
      {"smiles": "CCCCNC(=O)CN(c1cccc(Br)c1)S(C)(=O)=O", "hERG current change (%, negative = inhibition) at 1uM": 0.981},
      {"smiles": "CCN(CC)c1ccc(N=Cc2c(O)n(Cc3ccco3)c(=O)[nH]c2=O)cc1", "hERG current change (%, negative = inhibition) at 1uM": 8.18},
      {"smiles": "COCCN1CCN(C(=O)C2CCC(=O)N(Cc3ccccc3F)C2)CC1", "note": "(centres unmarked)", "hERG current change (%, negative = inhibition) at 1uM": 9.05},
      {"smiles": "O=C(Nc1ccc(F)cc1F)c1ccc(-n2cccn2)c([N+](=O)[O-])c1", "hERG current change (%, negative = inhibition) at 1uM": 2.31},
      {"smiles": "Cc1cccc(S(=O)(=O)N2CCCc3ccccc32)c1", "hERG current change (%, negative = inhibition) at 1uM": 22.9},
      {"smiles": "CCN(CC)C(=O)COc1coc(CN2CCN(c3ccc(F)cc3)CC2)cc1=O", "hERG current change (%, negative = inhibition) at 1uM": 10.1},
      {"smiles": "CCS(=O)(=O)n1nc(NCc2cccc(OC)c2)nc1NCc1cccc(OC)c1", "hERG current change (%, negative = inhibition) at 1uM": 6.13},
      {"smiles": "CC(C)CC(=O)C1CCCN(C(=O)c2ccc3oc(Cc4ccccc4)nc3c2)C1", "note": "(centres unmarked)", "hERG current change (%, negative = inhibition) at 1uM": 11.9},
      {"smiles": "Cc1cc(C)c2c(NC(N)=S)n[nH]c2n1", "hERG current change (%, negative = inhibition) at 1uM": 1.24},
      {"smiles": "Cc1ccc(C)c(OCCC(=O)OCC(=O)Nc2ccc(Cl)cn2)c1", "hERG current change (%, negative = inhibition) at 1uM": 5.38},
      {"smiles": "O=C1CCC/C1=C\\c1ccccc1", "hERG current change (%, negative = inhibition) at 1uM": 7.12},
      {"smiles": "C=CCn1c(SCN2C(=O)c3ccccc3C2=O)nc2ccc(Cl)cc2c1=O", "hERG current change (%, negative = inhibition) at 1uM": 21.7},
      {"smiles": "COc1cc(S(=O)(=O)Nc2ccc(Br)cc2)ccc1N", "hERG current change (%, negative = inhibition) at 1uM": -3.42},
      {"smiles": "CCC(c1nnnn1CCOC)N1CCN(C(=O)c2ccco2)CC1.Cl", "note": "(centres unmarked)", "hERG current change (%, negative = inhibition) at 1uM": 9.86},
      {"smiles": "Cc1ccc(C(=O)NNC(=O)Cn2ccc(C(F)(F)F)n2)o1", "hERG current change (%, negative = inhibition) at 1uM": 8.93},
      {"smiles": "C(#CC1CCCC1)c1ccc2c(c1)COc1c3ccccc3nn1-2", "hERG current change (%, negative = inhibition) at 1uM": 7.15},
      {"smiles": "CCCCn1c(N)c(N(CC)C(=O)c2ccc(Cl)c(Cl)c2)c(=O)[nH]c1=O", "hERG current change (%, negative = inhibition) at 1uM": 12.1},
      {"smiles": "CN1CCN(C(=O)C2=C[C@H](C3CCCCC3)C[C@H](OCc3ccc(CO)cc3)O2)CC1", "hERG current change (%, negative = inhibition) at 1uM": -29.3},
      {"smiles": "O=C(CCC(=O)OCc1ccc([N+](=O)[O-])cc1)Nc1ccccc1Cl", "hERG current change (%, negative = inhibition) at 1uM": 12.9},
      {"smiles": "O=C(NNc1cccc(Cl)n1)C(F)(F)F", "hERG current change (%, negative = inhibition) at 1uM": 15},
      {"smiles": "Cc1ccc(-c2ccc(CCC(=O)O)n2NC(=O)c2ccc([N+](=O)[O-])cc2)cc1", "hERG current change (%, negative = inhibition) at 1uM": 19.3},
      {"smiles": "Cc1ccc(C(=O)Nc2nnc(C)s2)cc1", "hERG current change (%, negative = inhibition) at 1uM": 14.6},
      {"smiles": "CN(CCCN1CCOCC1)Cc1nc(-c2ccccc2)no1", "hERG current change (%, negative = inhibition) at 1uM": 10},
      {"smiles": "Cc1ccc(C)c(S(=O)(=O)N2CCCOC2CNC(=O)C(=O)NCCN2CCOCC2)c1", "note": "(centres unmarked)", "hERG current change (%, negative = inhibition) at 1uM": 15.4},
      {"smiles": "CC1CC(=O)Nc2ccccc2N1S(=O)(=O)c1cccc(F)c1", "note": "(centres unmarked)", "hERG current change (%, negative = inhibition) at 1uM": 14.4},
      {"smiles": "CCCC(C)C(=O)Nc1nnc(C)s1", "note": "(centres unmarked)", "hERG current change (%, negative = inhibition) at 1uM": 2.72},
      {"smiles": "Cc1cc(N/C=C(\\C#N)S(=O)(=O)c2ccc(Cl)cc2)nc(C)n1", "hERG current change (%, negative = inhibition) at 1uM": 9.13},
      {"smiles": "CCCCN(CCCNC(=O)c1c(C)cc(=O)oc1C)c1ccccc1", "hERG current change (%, negative = inhibition) at 1uM": -25.2},
      {"smiles": "CCOC(=O)c1c(C)[nH]c(C(=O)OCc2ccc([N+](=O)[O-])cc2)c1C", "hERG current change (%, negative = inhibition) at 1uM": 16.1},
      {"smiles": "COc1ccc(/C=C/c2onc(C)c2S(=O)(=O)N2CCC(C(=O)N3CCCCCC3)CC2)cc1", "hERG current change (%, negative = inhibition) at 1uM": -2.66},
      {"smiles": "CCN(CC)S(=O)(=O)c1ccc(N2CCOCC2)c(NS(=O)(=O)c2cccs2)c1", "hERG current change (%, negative = inhibition) at 1uM": -1.83}
    ]}
  ]
}
